Measurements published in the supplement of paper PMC7826260.
Some of the results follow. One pool of 16,384 single-stranded DNAs met each Rep nickase domain in vitro (3 µM enzyme, 1 h, 37 °C); shown is the middle of each 90-letter strand. The score is log2 (uncut reads / reads without enzyme); more negative means more cut, near 0 not cut, and no call is made. Shares of all reads are compared; uncut strands gain when others are lost, and binding without cutting may add a little.

Columns and labels:
Experiment in all cases: uncleaved DNA left, log2 of reads against the no-enzyme library (log2 ratio); higher = less cleavage (more negative = more Rep cleavage of the k-mer); sequences stand for … in CTCGTCCG…ACCGGAGA
[1] = tested on: T1, Rep nickase domain of Muscovy duck circovirus
T1 sequence (Rep 1-111, printed without the tag): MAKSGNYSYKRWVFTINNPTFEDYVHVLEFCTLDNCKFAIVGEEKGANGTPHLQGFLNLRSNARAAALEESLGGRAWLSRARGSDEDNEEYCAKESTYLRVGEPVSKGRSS
Procedure: (§1)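 A pool of 90-nt single-stranded DNAs with seven random bases just before the constant AC of the nick site (name = the seven bases) was cut by 3 µM recombinant His6-SUMO-tagged Rep nickase domain (300 nM DNA, 50 mM HEPES pH 8.0, 50 mM NaCl, 1 mM MnCl2, 1 h, 37 °C, three replicates). Uncut DNA was amplified and sequenced.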

[2] = tested on: T2, Rep nickase domain of banana bunchy top virus
T2 sequence (Rep 1-94, printed without the tag): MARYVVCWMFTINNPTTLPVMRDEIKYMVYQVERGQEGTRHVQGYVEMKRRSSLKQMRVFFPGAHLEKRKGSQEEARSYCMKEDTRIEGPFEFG
Procedure: as §1

[3] = tested on: T3, Rep nickase domain of cabbage leaf curl virus
T3 sequence (Rep 1-116, printed without the tag): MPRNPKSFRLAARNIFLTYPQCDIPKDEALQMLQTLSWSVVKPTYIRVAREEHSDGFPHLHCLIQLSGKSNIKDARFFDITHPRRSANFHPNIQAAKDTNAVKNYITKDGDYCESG
Procedure: as §1

[4] = tested on: T4, Rep nickase domain of chickpea chlorotic dwarf virus
T4 sequence (Rep 1-124, printed without the tag): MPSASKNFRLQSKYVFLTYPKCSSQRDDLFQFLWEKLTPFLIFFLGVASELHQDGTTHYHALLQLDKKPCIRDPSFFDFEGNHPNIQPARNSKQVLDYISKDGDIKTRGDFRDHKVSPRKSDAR
Procedure: as §1

[5] = tested on: T5, Rep nickase domain of faba bean necrotic yellows virus
T5 sequence (Rep 1-98, printed without the tag): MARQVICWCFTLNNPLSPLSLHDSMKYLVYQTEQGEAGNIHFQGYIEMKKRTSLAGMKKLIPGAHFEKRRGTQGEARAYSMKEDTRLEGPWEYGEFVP
Procedure: as §1

[6] = tested on: T6, Rep nickase domain of maize striate mosaic virus
T6 sequence (Rep 1-117, printed without the tag): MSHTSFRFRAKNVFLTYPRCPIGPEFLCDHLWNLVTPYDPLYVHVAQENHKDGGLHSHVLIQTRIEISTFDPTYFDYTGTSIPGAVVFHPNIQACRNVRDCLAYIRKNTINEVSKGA
Procedure: as §1

[7] = tested on: T7, Rep nickase domain of porcine circovirus 2
T7 sequence (Rep 2-116, printed without the tag): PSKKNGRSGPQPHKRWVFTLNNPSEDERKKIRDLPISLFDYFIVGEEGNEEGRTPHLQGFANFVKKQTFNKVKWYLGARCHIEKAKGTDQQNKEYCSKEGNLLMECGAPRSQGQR
Procedure: as §1

[8] = tested on: T8, Rep nickase domain of tomato golden mosaic virus
T8 sequence (Rep 1-124, printed without the tag): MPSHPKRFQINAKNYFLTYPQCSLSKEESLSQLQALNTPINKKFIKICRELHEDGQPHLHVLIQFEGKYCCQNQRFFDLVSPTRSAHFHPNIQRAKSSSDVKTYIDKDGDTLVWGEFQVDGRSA
Procedure: as §1

[9] = tested on: T9, Rep nickase domain of tomato yellow leaf curl virus
T9 sequence (Rep 1-136, printed without the tag): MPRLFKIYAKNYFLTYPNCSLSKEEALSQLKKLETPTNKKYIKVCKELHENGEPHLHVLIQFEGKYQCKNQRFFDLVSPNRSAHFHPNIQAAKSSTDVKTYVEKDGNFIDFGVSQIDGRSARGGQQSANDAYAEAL
Procedure: as §1

[10] = tested on: T10, Rep nickase domain of wheat dwarf virus
T10 sequence (Rep 1-137, printed without the tag): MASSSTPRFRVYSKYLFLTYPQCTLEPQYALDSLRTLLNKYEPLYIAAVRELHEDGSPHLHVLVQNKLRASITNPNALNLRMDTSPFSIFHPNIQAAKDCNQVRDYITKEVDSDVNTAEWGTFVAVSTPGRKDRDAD
Procedure: as §1

| Sequence | uncleaved DNA left (log2) [1] | uncleaved DNA left (log2) [2] | uncleaved DNA left (log2) [3] | uncleaved DNA left (log2) [4] | uncleaved DNA left (log2) [5] | uncleaved DNA left (log2) [6] | uncleaved DNA left (log2) [7] | uncleaved DNA left (log2) [8] | uncleaved DNA left (log2) [9] | uncleaved DNA left (log2) [10] |
| --- | --- | --- | --- | --- | --- | --- | --- | --- | --- | --- |
| TTGGGTC | -0.016 | 0.0293 | 0.454 | 0.721 | 0.0183 | 0.771 | 0.0995 | -0.0746 | 0.0989 | 0.0599 |
| ATTGACC | -0.101 | -0.0164 | -0.0113 | 0.646 | -0.109 | 0.798 | 0.015 | -0.0458 | -0.0541 | -0.05 |
| TCTCGAT | -0.0513 | -0.22 | 0.0393 | 0.144 | -0.213 | 0.497 | -0.0906 | -0.104 | -0.121 | -0.0291 |
| GTGGAGG | 0.0661 | -0.0148 | 0.563 | 1.2 | -0.0186 | 1.47 | 0.156 | 0.141 | 0.0256 | -0.00716 |
| GGTACAA | 0.0507 | 0.194 | 0.9 | 1.95 | -0.0572 | 2.22 | 0.261 | 0.0335 | 0.107 | 0.184 |
| TTGTAAC | 0.0428 | -0.083 | 0.0395 | -1.18 | 0.115 | -0.0712 | -0.0369 | -0.075 | 0.13 | -0.0585 |
| CGGCACA | 0.206 | 0.131 | 0.157 | 0.536 | 0.0146 | 0.966 | 0.00349 | -0.0227 | 0.0504 | 0.199 |
| TGGGTGC | 0.0695 | 0.0916 | 0.332 | 0.562 | -0.0513 | 0.359 | 0.24 | -0.00233 | 0.0804 | 0.0183 |
| CGCCAAG | -0.0224 | -0.0272 | -0.554 | -0.392 | -0.147 | -0.875 | 0.0195 | -0.129 | 0.0296 | -0.175 |
| GGAAACT | -0.0238 | 0.0689 | 0.58 | 1.01 | 0.0225 | 1.96 | 0.111 | -0.0616 | 0.00406 | 0.0993 |
| TTTTACA | -0.2 | 0.0124 | -0.135 | -2.24 | 0.097 | 0.286 | -1.55 | -0.0303 | 0.0362 | -0.207 |
| TGCGTCG | 0.0696 | -0.123 | -0.382 | -0.529 | -0.0696 | -0.759 | 0.139 | -0.106 | -0.145 | -0.0714 |
| AAGAGCT | 0.0627 | -0.0521 | -0.0278 | 0.00244 | -0.109 | 0.303 | -2.71 | 0.0824 | -0.0884 | -0.0529 |
| AGAACAG | 0.0061 | 0.0336 | -0.271 | -0.285 | 0.00149 | -0.56 | 0.187 | 0.00921 | 0.0857 | 0.0792 |
| TGAAGCA | 0.0919 | 0.131 | 0.00921 | -0.557 | 0.097 | -0.65 | -0.252 | 0.169 | 0.0557 | 0.0688 |
| GCGTTCA | -0.0141 | -0.00267 | 0.136 | 0.0105 | -0.00694 | 0.302 | -0.171 | -0.0601 | -0.00906 | -0.077 |
| AGAAGTC | 0.023 | 0.00192 | -0.285 | -0.262 | -0.00142 | -0.507 | 0.0799 | -0.053 | 0.0101 | -0.0268 |
| GTTACCT | 0.0781 | 0.084 | 0.291 | 0.424 | 0.0485 | 1.63 | -0.00336 | 0.051 | 0.0262 | 0.106 |
| CGCAGTG | -0.0101 | -0.0888 | -0.359 | -0.0269 | -0.00881 | -0.382 | 0.14 | 0.0901 | -0.103 | -0.00623 |
| GACCCCG | -0.197 | -0.198 | -0.75 | -0.837 | -0.0806 | -0.822 | -0.41 | -0.125 | -0.201 | -0.165 |
| TCATGTC | 0.0746 | -0.0481 | -0.0739 | -0.417 | 0.101 | -1.03 | 0.0401 | 0.055 | 0.0255 | 0.0114 |
| ATATCGC | 0.0469 | 0.00566 | -0.729 | -0.768 | 0.0558 | -1.08 | 0.123 | -0.0465 | 0.0479 | -0.0142 |
| TTGTATC | 0.0279 | 0.0386 | 0.156 | 0.0313 | -0.0873 | -0.355 | -0.145 | -0.0129 | 0.111 | 0.159 |
| TGTTAGA | -0.0578 | -0.103 | 0.0178 | -0.14 | 0.0196 | -0.726 | 0.0336 | -0.00417 | -0.006 | 0.0166 |
| GCGGATG | -0.0594 | 0.0154 | -0.0706 | 0.633 | -0.138 | 1.61 | -0.0231 | -0.0771 | -0.175 | -0.146 |
| GGTAATG | 0.0494 | 0.0826 | 0.515 | 1.2 | -0.0311 | 1.43 | 0.205 | 0.00869 | 0.0285 | 0.0634 |
| CATATAG | -0.000634 | -0.0955 | -0.819 | -0.177 | 0.0356 | -1.17 | 0.191 | 0.0501 | -0.0147 | -0.0203 |
| CGCACCT | -0.152 | -0.126 | -0.162 | -1.2 | -0.0428 | -0.0501 | -0.376 | -0.225 | -0.0948 | 0.0203 |
| ATATACT | -4.24 | -0.743 | -3.17 | -3.48 | -0.0658 | -1.86 | -3.91 | -1.08 | -0.047 | -1.15 |
| GTTCTGC | 0.00803 | 0.00655 | 0.156 | 0.427 | -0.0335 | 0.266 | 0.0299 | 0.0373 | 0.0372 | -0.00429 |
